# Laboratory results reported in the supplement of paper PMC8728848.
# Some of the results follow.
# Legend:
# Assay in all cases: glycan array binding signal (z-score within array); higher = stronger binding
# Details in all cases: glycan notation: IUPAC condensed, linker removed
# [1] = target: Fuc(a1-2)[GalNAc(a1-3)]Gal(b1-3)GlcNAc(b1-2)Man(a1-3)[Fuc(a1-2)[GalNAc(a1-3)]Gal(b1-3)GlcNAc(b1-2)Man(a1-6)]Man(b1-4)GlcNAc(b1-4)GlcNAc
# Summary of the method: (§1)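 Negative Z-scores can be read as non-binding. The Z-score is calculated within each array and then averaged across arrays of one protein sequence at different concentrations or buffers and across linkers. Arrays, 3228 in all, were curated from the Consortium for Functional Glycomics database and kept only where the protein sequence was available.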
# [2] = target: Fuc(a1-2)[GalNAc(a1-3)]Gal(b1-3)GlcNAc(b1-2)Man(a1-3)[Fuc(a1-2)[GalNAc(a1-3)]Gal(b1-3)GlcNAc(b1-2)Man(a1-6)]Man(b1-4)GlcNAc(b1-4)[Fuc(a1-6)]GlcNAc
# Summary of the method: as §1
# [3] = target: Fuc(a1-2)[GalNAc(a1-3)]Gal(b1-3)GlcNAc(b1-3)GalNAc
# Summary of the method: as §1
# [4] = target: Fuc(a1-2)[GalNAc(a1-3)]Gal(b1-3)GlcNAc(b1-6)GalNAc
# Summary of the method: as §1
# [5] = target: Fuc(a1-2)[GalNAc(a1-3)]Gal(b1-4)Glc
# Summary of the method: as §1
# [6] = target: Fuc(a1-2)[GalNAc(a1-3)]Gal(b1-4)GlcNAc
# Summary of the method: as §1
# [7] = target: Fuc(a1-2)[GalNAc(a1-3)]Gal(b1-4)GlcNAc(b1-2)Man(a1-3)[Fuc(a1-2)[GalNAc(a1-3)]Gal(b1-4)GlcNAc(b1-2)Man(a1-6)]Man(b1-4)GlcNAc(b1-4)GlcNAc
# Summary of the method: as §1
# [8] = target: Fuc(a1-2)[GalNAc(a1-3)]Gal(b1-4)GlcNAc(b1-2)Man(a1-3)[Fuc(a1-2)[GalNAc(a1-3)]Gal(b1-4)GlcNAc(b1-2)Man(a1-6)]Man(b1-4)GlcNAc(b1-4)[Fuc(a1-6)]GlcNAc
# Summary of the method: as §1
# [9] = target: Fuc(a1-2)[GalNAc(a1-3)]Gal(b1-4)GlcNAc(b1-3)Gal(b1-4)GlcNAc
# Summary of the method: as §1
# [10] = target: Fuc(a1-2)[GalNAc(a1-3)]Gal(b1-4)GlcNAc(b1-3)Gal(b1-4)GlcNAc(b1-3)Gal(b1-4)GlcNAc
# Summary of the method: as §1
# [11] = target: Fuc(a1-2)[GalNAc(a1-3)]Gal(b1-4)GlcNAc(b1-3)GalNAc
# Summary of the method: as §1
# [12] = target: Fuc(a1-2)[GalNAc(a1-3)]Gal(b1-4)[Fuc(a1-3)]GlcNAc
# Summary of the method: as §1
# [13] = target: Fuc(a1-2)[GalNAc(a1-3)]Gal(b1-4)[Fuc(a1-3)]GlcNAc(b1-3)GalNAc
# Summary of the method: as §1
# [14] = target: Fuc(a1-2)[GalNAc(a1-4)]Gal(b1-4)GlcNAc
# Summary of the method: as §1
# [15] = target: Fuc(a1-2)[GalNAc(b1-3)]Gal
# Summary of the method: as §1
# Fuc(a1-3)GlcNAc = target: Fuc(a1-3)GlcNAc
# Summary of the method: as §1
# [16] = target: Fuc(a1-3)[Gal(b1-4)]Glc6S
# Summary of the method: as §1
# [17] = target: Fuc(a1-3)[Gal(b1-4)]GlcNAc
# Summary of the method: as §1
# [18] = target: Fuc(a1-3)[Gal(b1-4)]GlcNAc(b1-2)Man
# Summary of the method: as §1
# [19] = target: Fuc(a1-3)[Gal(b1-4)]GlcNAc(b1-2)Man(a1-3)[Fuc(a1-3)[Gal(b1-4)]GlcNAc(b1-2)Man(a1-6)]Man(b1-4)GlcNAc(b1-4)GlcNAc
# Summary of the method: as §1
# [20] = target: Fuc(a1-3)[Gal(b1-4)]GlcNAc(b1-2)Man(a1-3)[Fuc(a1-3)[Gal(b1-4)]GlcNAc(b1-2)Man(a1-6)]Man(b1-4)GlcNAc(b1-4)[Fuc(a1-6)]GlcNAc
# Summary of the method: as §1
# [21] = target: Fuc(a1-3)[Gal(b1-4)]GlcNAc(b1-3)Gal(b1-3)[Fuc(a1-4)]GlcNAc
# Summary of the method: as §1
# [22] = target: Fuc(a1-3)[Gal(b1-4)]GlcNAc(b1-3)GalNAc
# Summary of the method: as §1
# [23] = target: Fuc(a1-3)[Gal(b1-4)]GlcNAc(b1-4)Gal(b1-4)[Fuc(a1-3)]GlcNAc
# Summary of the method: as §1
# [24] = target: Fuc(a1-3)[Gal(b1-4)]GlcNAc(b1-4)Gal(b1-4)[Fuc(a1-3)]GlcNAc(b1-4)Gal(b1-4)[Fuc(a1-3)]GlcNAc
# Summary of the method: as §1
# [25] = target: Fuc(a1-3)[Gal(b1-4)]GlcNAc(b1-6)GalNAc
# Summary of the method: as §1
# [26] = target: Fuc(a1-3)[Gal(b1-4)]GlcNAc(b1-6)[Gal(b1-3)GlcNAc(b1-3)]Gal(b1-4)Glc
# Summary of the method: as §1
# [27] = target: Fuc(a1-3)[Gal(b1-4)]GlcNAc(b1-6)[Neu5Ac(a2-3)Gal(b1-3)]GalNAc
# Summary of the method: as §1
# [28] = target: Fuc(a1-3)[Gal(b1-4)]GlcNAc6S
# Summary of the method: as §1
# [29] = target: Fuc(a1-3)[Gal3S(b1-4)]GlcNAc
# Summary of the method: as §1
# [30] = target: Fuc(a1-3)[Gal3S(b1-4)]GlcNAc6S
# Summary of the method: as §1
# [31] = target: Fuc(a1-3)[GalNAc(b1-4)]GlcNAc
# Summary of the method: as §1
# [32] = target: Fuc(a1-3)[GalNAc(b1-4)]GlcNAc6S
# Summary of the method: as §1
# [33] = target: Fuc(a1-3)[GalNAc3S(b1-4)]GlcNAc
# Summary of the method: as §1
# Fuc(a1-4)GlcNAc = target: Fuc(a1-4)GlcNAc
# Summary of the method: as §1
# Fuc(b1-3)GlcNAc = target: Fuc(b1-3)GlcNAc
# Summary of the method: as §1
# Gal(a1-2)Gal = target: Gal(a1-2)Gal
# Summary of the method: as §1
# Gal(a1-3)Gal = target: Gal(a1-3)Gal
# Summary of the method: as §1
binder,measurement,setting,value
"OrfX (Escherichia coli), Q9X4B6_ECOLX (protein) MIKIARIAVTLGLLSSLGAQAYAAGLVVNDNDLRNDLAWLSDRGVIHLSLSTWPLSQEEIARALKKAKPSYSSEQVVLARINQRLSALKADFRVTGYTSTDQPGTPQGFGQTQPADNSLGLAFNNSGEWWDVHLQGNVEGGERISNGSRFNANGAYGAVKFWNQWLSFGQVPQWWGPGYEGSLIRGDAMRPMTGFLMQRAEQAAPETWWLRWVGPWQYQISASQMNQYTAVPHAKIIGGRFTFTPFQSLELGASRIMQWGGEGRPQSFSSFWDGFTGHDNTGTDNEPGNQLAGFDFKFKLEPTLGWPVSFYGQMVGEDESGYLPSANMFLGGVEGHHGWGKDTVNWYVEAHDTRTNMSRTNYSYTHHIYKDGYYQQGYPLGDAMGGDGQLIAGKVELITEDNQRWSTRLVYAKVNPENQSINKAFPHADTLKGLQLGWSGDVYQSVRLNTSLWYTNANNSDSDDVGASAGIEIPFSL",glycan array binding signal (z-score),[1],-0.281
same,glycan array binding signal (z-score),[2],-0.266
same,glycan array binding signal (z-score),[3],-0.109
same,glycan array binding signal (z-score),[4],-0.339
same,glycan array binding signal (z-score),[5],-0.196
same,glycan array binding signal (z-score),[6],-0.165
same,glycan array binding signal (z-score),[7],-0.185
same,glycan array binding signal (z-score),[8],-0.32
same,glycan array binding signal (z-score),[9],-0.455
same,glycan array binding signal (z-score),[10],0.681
same,glycan array binding signal (z-score),[11],-0.266
same,glycan array binding signal (z-score),[12],0.042
same,glycan array binding signal (z-score),[13],1.18
same,glycan array binding signal (z-score),[14],0.046
same,glycan array binding signal (z-score),[15],-0.235
same,glycan array binding signal (z-score),Fuc(a1-3)GlcNAc,-0.094
same,glycan array binding signal (z-score),[16],0.241
same,glycan array binding signal (z-score),[17],-0.174
same,glycan array binding signal (z-score),[18],-0.185
same,glycan array binding signal (z-score),[19],-0.208
same,glycan array binding signal (z-score),[20],0.133
same,glycan array binding signal (z-score),[21],-0.278
same,glycan array binding signal (z-score),[22],-0.209
same,glycan array binding signal (z-score),[23],-0.319
same,glycan array binding signal (z-score),[24],-0.25
same,glycan array binding signal (z-score),[25],1.29
same,glycan array binding signal (z-score),[26],-0.356
same,glycan array binding signal (z-score),[27],-0.016
same,glycan array binding signal (z-score),[28],0.121
same,glycan array binding signal (z-score),[29],-0.155
same,glycan array binding signal (z-score),[30],2.97
same,glycan array binding signal (z-score),[31],-0.21
same,glycan array binding signal (z-score),[32],-0.277
same,glycan array binding signal (z-score),[33],-0.23
same,glycan array binding signal (z-score),Fuc(a1-4)GlcNAc,-0.15
same,glycan array binding signal (z-score),Fuc(b1-3)GlcNAc,-0.024
same,glycan array binding signal (z-score),Gal(a1-2)Gal,-0.296
same,glycan array binding signal (z-score),Gal(a1-3)Gal,0.29
